Assay results from the supplement of paper PMC8728848.
This is one part of the list.

Assays:
Experiment in all cases: glycan array binding signal (z-score within array); higher = stronger binding
Details in all cases: glycan notation: IUPAC condensed, linker removed
[1] = molecular target: Neu5Ac(a2-3)Gal(b1-3)GalNAc
Outline: (§1)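 Glycan array data came from 3228 arrays in the Consortium for Functional Glycomics database, and only arrays with an available protein sequence were kept. Glycan names were put into IUPAC-condensed notation, and columns mapping to the same glycan were averaged. The binding signal is a within-array Z-score, averaged across arrays of one protein sequence run at different concentrations or buffers and across linkers. A negative Z-score can be read as non-binding.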

[2] = molecular target: Neu5Ac(a2-3)Gal(b1-3)GalNAc(b1-3)Gal(a1-4)Gal(b1-4)Glc
Outline: as §1

[3] = molecular target: Neu5Ac(a2-3)Gal(b1-3)GalNAc(b1-4)[Neu5Ac(a2-3)]Gal(b1-4)Glc
Outline: as §1

[4] = molecular target: Neu5Ac(a2-3)Gal(b1-3)GalNAc(b1-4)[Neu5Ac(a2-8)Neu5Ac(a2-3)]Gal(b1-4)Glc
Outline: as §1

[5] = molecular target: Neu5Ac(a2-3)Gal(b1-3)GalNAc6S
Outline: as §1

[6] = molecular target: Neu5Ac(a2-3)Gal(b1-3)GlcNAc
Outline: as §1

[7] = molecular target: Neu5Ac(a2-3)Gal(b1-3)GlcNAc(b1-2)Man
Outline: as §1

[8] = molecular target: Neu5Ac(a2-3)Gal(b1-3)GlcNAc(b1-2)Man(a1-3)[GlcNAc(b1-4)][Neu5Ac(a2-3)Gal(b1-3)GlcNAc(b1-2)Man(a1-6)]Man(b1-4)GlcNAc(b1-4)GlcNAc
Outline: as §1

[9] = molecular target: Neu5Ac(a2-3)Gal(b1-3)GlcNAc(b1-2)Man(a1-3)[Neu5Ac(a2-3)Gal(b1-3)GlcNAc(b1-2)Man(a1-6)]Man(b1-4)GlcNAc(b1-4)GlcNAc
Outline: as §1

[10] = molecular target: Neu5Ac(a2-3)Gal(b1-3)GlcNAc(b1-3)Gal(b1-3)GlcNAc
Outline: as §1

[11] = molecular target: Neu5Ac(a2-3)Gal(b1-3)GlcNAc(b1-3)Gal(b1-4)GlcNAc
Outline: as §1

[12] = molecular target: Neu5Ac(a2-3)Gal(b1-3)GlcNAc(b1-3)GalNAc
Outline: as §1

[13] = molecular target: Neu5Ac(a2-3)Gal(b1-3)GlcNAc(b1-4)Gal(b1-4)Glc
Outline: as §1

[14] = molecular target: Neu5Ac(a2-3)Gal(b1-3)GlcNAc(b1-6)GalNAc
Outline: as §1

[15] = molecular target: Neu5Ac(a2-3)Gal(b1-3)GlcNAc6S
Outline: as §1

[16] = molecular target: Neu5Ac(a2-3)Gal(b1-3)[Fuc(a1-4)]GlcNAc
Outline: as §1

[17] = molecular target: Neu5Ac(a2-3)Gal(b1-3)[Fuc(a1-4)]GlcNAc(b1-3)Gal(b1-3)[Fuc(a1-4)]GlcNAc
Outline: as §1

[18] = molecular target: Neu5Ac(a2-3)Gal(b1-3)[Fuc(a1-4)]GlcNAc(b1-3)Gal(b1-4)[Fuc(a1-3)]GlcNAc
Outline: as §1

[19] = molecular target: Neu5Ac(a2-3)Gal(b1-3)[GlcNAc(b1-6)]GalNAc
Outline: as §1

[20] = molecular target: Neu5Ac(a2-3)Gal(b1-3)[Neu5Ac(a2-6)]GalNAc
Outline: as §1

[21] = molecular target: Neu5Ac(a2-3)Gal(b1-3)[Neu5Ac(a2-6)]GlcNAc(b1-3)[Fuc(a1-3)[Gal(b1-4)]GlcNAc(b1-6)]Gal(b1-4)Glc
Outline: as §1

[22] = molecular target: Neu5Ac(a2-3)Gal(b1-3)]Neu5Ac(a2-3)Gal(b1-4)]GlcNAc
Outline: as §1

Neu5Ac(a2-3)Gal(b1-4)Glc = molecular target: Neu5Ac(a2-3)Gal(b1-4)Glc
Outline: as §1

[23] = molecular target: Neu5Ac(a2-3)Gal(b1-4)GlcNAc
Outline: as §1

[24] = molecular target: Neu5Ac(a2-3)Gal(b1-4)GlcNAc(b1-2)Man
Outline: as §1

[25] = molecular target: Neu5Ac(a2-3)Gal(b1-4)GlcNAc(b1-2)Man(a1-3)[GlcNAc(b1-4)][Neu5Ac(a2-3)Gal(b1-4)GlcNAc(b1-2)Man(a1-6)]Man(b1-4)GlcNAc(b1-4)GlcNAc
Outline: as §1

[26] = molecular target: Neu5Ac(a2-3)Gal(b1-4)GlcNAc(b1-2)Man(a1-3)[Neu5Ac(a2-3)Gal(b1-4)GlcNAc(b1-2)Man(a1-6)]Man(b1-4)GlcNAc(b1-4)GlcNAc
Outline: as §1

[27] = molecular target: Neu5Ac(a2-3)Gal(b1-4)GlcNAc(b1-2)Man(a1-3)[Neu5Ac(a2-3)Gal(b1-4)GlcNAc(b1-2)Man(a1-6)]Man(b1-4)GlcNAc(b1-4)[Fuc(a1-6)]GlcNAc
Outline: as §1

[28] = molecular target: Neu5Ac(a2-3)Gal(b1-4)GlcNAc(b1-2)Man(a1-3)[Neu5Ac(a2-6)Gal(b1-4)GlcNAc(b1-2)Man(a1-6)]Man(b1-4)GlcNAc(b1-4)GlcNAc
Outline: as §1

[29] = molecular target: Neu5Ac(a2-3)Gal(b1-4)GlcNAc(b1-2)[Neu5Ac(a2-3)Gal(b1-4)GlcNAc(b1-4)]Man(a1-3)[GlcNAc(b1-4)][Neu5Ac(a2-3)Gal(b1-4)GlcNAc(b1-2)[Neu5Ac(a2-3)Gal(b1-4)GlcNAc(b1-6)]Man(a1-6)]Man(b1-4)GlcNAc(b1-4)GlcNAc
Outline: as §1

[30] = molecular target: Neu5Ac(a2-3)Gal(b1-4)GlcNAc(b1-2)[Neu5Ac(a2-3)Gal(b1-4)GlcNAc(b1-4)]Man(a1-3)[GlcNAc(b1-4)][Neu5Ac(a2-3)Gal(b1-4)GlcNAc(b1-4)Man(a1-6)]Man(b1-4)GlcNAc(b1-4)GlcNAc
Outline: as §1

[31] = molecular target: Neu5Ac(a2-3)Gal(b1-4)GlcNAc(b1-2)[Neu5Ac(a2-3)Gal(b1-4)GlcNAc(b1-6)]Man(a1-6)[Neu5Ac(a2-3)Gal(b1-4)GlcNAc(b1-2)Man(a1-3)]Man(b1-4)GlcNAc(b1-4)GlcNAc
Outline: as §1

[32] = molecular target: Neu5Ac(a2-3)Gal(b1-4)GlcNAc(b1-2)[Neu5Ac(a2-3)Gal(b1-4)GlcNAc(b1-6)]Man(a1-6)[Neu5Ac(a2-3)Gal(b1-4)GlcNAc(b1-2)Man(a1-3)][GlcNAc(b1-4)]Man(b1-4)GlcNAc(b1-4)GlcNAc
Outline: as §1

[33] = molecular target: Neu5Ac(a2-3)Gal(b1-4)GlcNAc(b1-3)Gal
Outline: as §1

[34] = molecular target: Neu5Ac(a2-3)Gal(b1-4)GlcNAc(b1-3)Gal(b1-3)GlcNAc
Outline: as §1

[35] = molecular target: Neu5Ac(a2-3)Gal(b1-4)GlcNAc(b1-3)Gal(b1-4)GlcNAc
Outline: as §1

[36] = molecular target: Neu5Ac(a2-3)Gal(b1-4)GlcNAc(b1-3)Gal(b1-4)GlcNAc(b1-2)Man(a1-3)[Neu5Ac(a2-3)Gal(b1-4)GlcNAc(b1-3)Gal(b1-4)GlcNAc(b1-2)Man(a1-6)]Man(b1-4)GlcNAc(b1-4)GlcNAc
Outline: as §1

B1: Si Bti9 1b-V5-his (Solanum lycopersicum) (protein)
chain: MQCNRGCDLALASFYVWRGSNLTLISEMFSTSIADIVSYNNRDNIPNQDSVIAGTRINIPFRCDCLNDGEVLGHAFPYRVKSGDTYDLVARNYSDLTTAQWMMKFNSYPENNIPNTVNLSVVVNCSCGNSDVSKDFGLFVTYPVRAEDNLTSVASAANVSEDIIRRYNPAAVSILDIGQGIIYIPGRDRNGNFPPLPTSTDGLSGGAKKGGRADPAFLYKVVINSKLEGKPIPNPLLGLDSTRTGHHHHHH
**Q.** B1 was tested. Which “glycan array binding signal (z-score)” value [1] did it give?
**A.** -0.303

**Q.** What about the “glycan array binding signal (z-score)” value [2] of the same binder?
**A.** -0.188

**Q.** What about the “glycan array binding signal (z-score)” value [3] of the same binder?
**A.** -0.251

**Q.** What about the “glycan array binding signal (z-score)” value [4] of the same binder?
**A.** 0.005

**Q.** What about the “glycan array binding signal (z-score)” value [5] of the same binder?
**A.** -0.251

**Q.** And the “glycan array binding signal (z-score)” value [6]?
**A.** -0.333

**Q.** What about the “glycan array binding signal (z-score)” value [7] of the same binder?
**A.** -0.149

**Q.** And the “glycan array binding signal (z-score)” value [8]?
**A.** -0.182

**Q.** What about the “glycan array binding signal (z-score)” value [9] of the same binder?
**A.** 0.033

**Q.** And the “glycan array binding signal (z-score)” value [10]?
**A.** -0.323

**Q.** And the “glycan array binding signal (z-score)” value [11]?
**A.** -0.317

**Q.** And the “glycan array binding signal (z-score)” value [12]?
**A.** -0.263

**Q.** And the “glycan array binding signal (z-score)” value [13]?
**A.** -0.223

**Q.** And the “glycan array binding signal (z-score)” value [14]?
**A.** 0.055

**Q.** And the “glycan array binding signal (z-score)” value [15]?
**A.** 0.024

**Q.** What about the “glycan array binding signal (z-score)” value [16] of the same binder?
**A.** -0.303

**Q.** And the “glycan array binding signal (z-score)” value [17]?
**A.** -0.079

**Q.** And the “glycan array binding signal (z-score)” value [18]?
**A.** -0.294

**Q.** And the “glycan array binding signal (z-score)” value [19]?
**A.** -0.228

**Q.** And the “glycan array binding signal (z-score)” value [20]?
**A.** -0.238

**Q.** And the “glycan array binding signal (z-score)” value [21]?
**A.** -0.344

**Q.** What about the “glycan array binding signal (z-score)” value [22] of the same binder?
**A.** -0.311

**Q.** And the “glycan array binding signal (z-score)” value (Neu5Ac(a2-3)Gal(b1-4)Glc)?
**A.** -0.218

**Q.** What about the “glycan array binding signal (z-score)” value [23] of the same binder?
**A.** -0.338

**Q.** And the “glycan array binding signal (z-score)” value [24]?
**A.** 0.768

**Q.** And the “glycan array binding signal (z-score)” value [25]?
**A.** -0.35

**Q.** What about the “glycan array binding signal (z-score)” value [26] of the same binder?
**A.** -0.423

**Q.** What about the “glycan array binding signal (z-score)” value [27] of the same binder?
**A.** -0.291

**Q.** What about the “glycan array binding signal (z-score)” value [28] of the same binder?
**A.** -0.367

**Q.** What about the “glycan array binding signal (z-score)” value [29] of the same binder?
**A.** -0.157

**Q.** And the “glycan array binding signal (z-score)” value [30]?
**A.** -0.113

**Q.** And the “glycan array binding signal (z-score)” value [31]?
**A.** -0.106

**Q.** And the “glycan array binding signal (z-score)” value [32]?
**A.** -0.312

**Q.** And the “glycan array binding signal (z-score)” value [33]?
**A.** 0.048

**Q.** And the “glycan array binding signal (z-score)” value [34]?
**A.** -0.372

**Q.** And the “glycan array binding signal (z-score)” value [35]?
**A.** -0.389

**Q.** And the “glycan array binding signal (z-score)” value [36]?
**A.** -0.283
